Here are results for 88 compounds from PMC4336329 (PLoS ONE, 2015).

In all, about 310,000 compounds went through this assay and about 2,200 (0.71%) showed an effect of 50% or more. Effects have a minus sign here. The list shows a part of the results.

Chain of human ether-à-go-go-related gene (hERG) potassium channel (Q12809 whole entry, looked up): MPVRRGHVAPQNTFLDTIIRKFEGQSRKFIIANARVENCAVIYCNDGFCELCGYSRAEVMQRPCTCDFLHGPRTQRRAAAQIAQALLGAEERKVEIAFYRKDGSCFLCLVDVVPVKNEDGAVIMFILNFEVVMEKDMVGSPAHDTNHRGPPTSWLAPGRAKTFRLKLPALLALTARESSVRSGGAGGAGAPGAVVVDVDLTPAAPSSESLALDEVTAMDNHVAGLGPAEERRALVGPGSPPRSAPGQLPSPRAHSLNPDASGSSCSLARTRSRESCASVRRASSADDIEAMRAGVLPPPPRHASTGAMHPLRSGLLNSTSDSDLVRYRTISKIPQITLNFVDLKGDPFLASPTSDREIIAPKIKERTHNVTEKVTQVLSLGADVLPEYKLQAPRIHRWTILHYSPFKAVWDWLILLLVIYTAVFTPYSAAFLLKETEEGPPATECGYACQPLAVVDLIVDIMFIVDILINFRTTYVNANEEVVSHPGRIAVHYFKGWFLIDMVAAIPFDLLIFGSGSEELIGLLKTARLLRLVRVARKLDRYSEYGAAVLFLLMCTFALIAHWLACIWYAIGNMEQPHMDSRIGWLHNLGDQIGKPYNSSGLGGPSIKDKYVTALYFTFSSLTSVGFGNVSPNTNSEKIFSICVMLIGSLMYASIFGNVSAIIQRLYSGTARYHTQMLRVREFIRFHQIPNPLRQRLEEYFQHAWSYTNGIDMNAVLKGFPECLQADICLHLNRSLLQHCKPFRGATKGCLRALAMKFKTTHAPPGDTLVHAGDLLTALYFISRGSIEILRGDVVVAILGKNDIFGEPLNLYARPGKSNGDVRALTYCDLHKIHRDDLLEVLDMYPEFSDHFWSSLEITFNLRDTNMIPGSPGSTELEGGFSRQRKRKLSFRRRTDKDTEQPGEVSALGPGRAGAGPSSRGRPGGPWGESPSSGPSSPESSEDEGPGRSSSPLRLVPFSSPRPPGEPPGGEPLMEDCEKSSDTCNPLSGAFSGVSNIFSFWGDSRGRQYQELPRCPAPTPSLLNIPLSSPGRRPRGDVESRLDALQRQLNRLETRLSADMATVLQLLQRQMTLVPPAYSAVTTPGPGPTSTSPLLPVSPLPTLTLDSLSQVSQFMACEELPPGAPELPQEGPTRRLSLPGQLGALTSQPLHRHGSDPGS

The test has as its target human ether-à-go-go-related gene (hERG) potassium channel (human, UniProt Q12809). Briefly: primary screen, population patch clamp on CHO cells stably expressing hERG.
Take `CC1CCCN(S(=O)(=O)c2ccc(C(=O)Nc3nnc(C4CC4)o3)cc2)C1` (stereo not shown): the “hERG current change (%, negative = inhibition) at 1uM” value is recorded as 11.7%.

On to `Cc1cccc(OCC(=O)NNS(=O)(=O)c2ccccc2F)c1`, for which the “hERG current change (%, negative = inhibition) at 1uM” value worked out at 11.6%. The value for `Cc1ccccc1OC(C)C(=O)NCc1cccnc1` (stereo not shown) was 6.68%. The value for `COc1ccccc1NS(=O)(=O)c1cc(NC(=O)c2ccc(=O)[nH]c2)ccc1N1CCOCC1` was -0.586%. For the compound `Cc1cc(C)c(S(=O)(=O)N(C)CC(=O)NCc2cccnc2)c(C)c1`, the “hERG current change (%, negative = inhibition) at 1uM” value is 4.04%. Turning to `CCCC(=O)c1cc2c(cc1NC(=O)CC)OCCO2`, the “hERG current change (%, negative = inhibition) at 1uM” value is 0.999%. The value for `CCSC1=N/C(=C\c2ccc(OC)cc2)C(=O)N1` was 9.9%.

For the compound `Cc1c(NC(=O)Cc2noc3ccccc23)cccc1[N+](=O)[O-]`, the “hERG current change (%, negative = inhibition) at 1uM” value is recorded as 12%. The figure for `COc1ccc(C(=O)N/N=C/c2ccc(OC)c(CN3CCN(c4ccc(F)cc4)CC3)c2)cc1` is -83.5%; for `O=C(O)/C(=C\c1cn(-c2ccccc2)nc1-c1cccnc1)NC(=O)c1ccccc1` it is 11.5%. On to `O=C(Nc1ccc(CN2CCOCC2)cc1)c1cc2ccccn2n1`, for which the “hERG current change (%, negative = inhibition) at 1uM” value was determined as 5.71%. The figure for `Cc1cc(CNC(=O)C2CCC(=O)N(Cc3cccc(C(F)(F)F)c3)C2)no1` (stereo not shown) is 0.0283%; for `CCCN1CCN(C(=O)C(C)n2nc(C)c3sc4ccccc4c3c2=O)CC1` (stereo not shown) it is 6.74%; for `CCCCn1nnnc1SCC(=O)NNC(=O)c1ccco1` it is 5.55%.

`CC(C)CC(=O)c1c[nH]c(C(=O)NCCc2ccccn2)c1`: the “hERG current change (%, negative = inhibition) at 1uM” value is 2.95%. The value for `COc1cccc(NC(=O)C2CCCN2C(=O)Nc2cccc(F)c2)c1` (stereo not shown) was 11%; that for `COCCNC(=O)c1ccccc1NC(=O)c1ccccc1N(C)S(=O)(=O)c1ccc(C)cc1` was 8.36%; that for `O=C(c1ccc(CS(=O)Cc2ccccc2Cl)o1)N1CCN(C2CCCCC2)CC1` (stereo not shown) was 13.2%. The value for `COCCNc1ccc(S(=O)(=O)N2CCCC2)cc1[N+](=O)[O-]` was -1.4%; that for `O=C(Cc1cccs1)N1CCN(c2cccc(Cl)c2)CC1` was 9.68%. Turning to `CC(C)c1nnc(NC(=O)c2nc(S(=O)(=O)Cc3ccc(F)cc3)ncc2Cl)s1`, the “hERG current change (%, negative = inhibition) at 1uM” value is -3.54%. The figure for `CCOc1ccccc1CN1CCC(n2nccc2NC(=O)CCc2ccccc2)CC1` is 2.97%; for `CS(=O)(=O)Oc1ccc(Br)cc1/C=C1/N=C(c2ccco2)OC1=O` it is 14%; for `O=c1[nH]c(C2CCN(S(=O)(=O)/C=C/c3ccccc3)CC2)nc2c1nnn2Cc1ccccc1` it is 8.49%.

`CCC1(CC)C(=O)C=CNC1=O`: the “hERG current change (%, negative = inhibition) at 1uM” value is listed as -0.937%. The figure for `CC1=NN(c2ccccc2)C(=O)/C1=C/c1c(C)[nH]n(-c2ccc(C)cc2)c1=O` is -5.54%; for `Cn1c(Cl)cnc1C1CC(=O)c2cc(Cl)ccc2O1` (stereo not shown) it is 0.7%.

As to `O=C(NC1CCCc2ccccc21)C1CCN(S(=O)(=O)c2ccccc2)CC1` (stereo not shown), the “hERG current change (%, negative = inhibition) at 1uM” value is on record as 14.5%. The figure for `O=C(O)CSc1nc2ccc(Cl)cc2[nH]1` is 14.5%; for `CC(Sc1nnc(CC(C)c2ccccc2)n1N)C(N)=O` (stereo not shown) it is 5.23%. The value for `COC(C[C@H]1O[C@@H]1C(=O)COCc1ccccc1)OC` was 5.82%. `CCOC(=O)C1CCN(C(=O)Nc2ccc3nc(-c4ccco4)c(-c4ccco4)nc3c2)CC1`: the “hERG current change (%, negative = inhibition) at 1uM” value is listed as -6.82%. Consider `O=C(NCc1cccc(Cl)c1)c1ccc(CS(=O)Cc2ccccc2Cl)o1` (stereo not shown), for which the “hERG current change (%, negative = inhibition) at 1uM” value amounted to 10.8%. The figure for `Cn1c(=O)[nH]c(=O)c2c1nc(Br)n2CCSc1nnnn1-c1ccccc1` is 9.49%; for `COC(=O)c1ccc(C(=S)N2CCCCC2)cc1` it is 1.19%; for `O=C(CSc1nnc(-c2ccc(Cl)cc2)n1Cc1ccco1)Nc1ccc2c(c1)OCCO2` it is 1.41%.

Turning to `C[N+](C)(CC#Cc1ccccc1)CC(=O)c1ccc(Cl)cc1`, the “hERG current change (%, negative = inhibition) at 1uM” value is -5.74%. The figure for `CCOc1ccc(NC(=O)[C@@H]2CCCN2C(=O)c2cccs2)cc1S(=O)(=O)N1CCCCC1` is 12.6%. On to `CC(C)(C)NC(=O)NC(=O)COc1ccc(Br)cc1Br`, for which the “hERG current change (%, negative = inhibition) at 1uM” value is recorded as -8.26%. In the case of `CCOC(=O)C1CCN(C(=O)c2cc3c(ccc4ccccc43)o2)CC1`, the “hERG current change (%, negative = inhibition) at 1uM” value is reported as 3.1%. For `O=C(NC1CCN(Cc2ccccc2)CC1)C1COc2ccccc2O1` (stereo not shown), the “hERG current change (%, negative = inhibition) at 1uM” value is -32%. The value for `COc1ccc(C(=O)Nc2sc(C)c(-c3ccccc3)c2C#N)cc1OC` was 8.98%. The value for `COc1ccc(NC(=O)c2ccc3c(c2)OCO3)cc1` was 17.1%; that for `O=C(Nc1ccnn1C1CCN(Cc2ccccc2)CC1)C1CCOC1` (stereo not shown) was 19.8%.

In the case of `Cc1cc(NC(=O)CSc2ncc(CO)n2Cc2ccc(F)cc2)no1`, the “hERG current change (%, negative = inhibition) at 1uM” value was 16.1%. For `O=C(NCCCN=C1NS(=O)(=O)c2ccccc21)c1ccncc1`, the “hERG current change (%, negative = inhibition) at 1uM” value is given as -5.21%. In the case of `Cc1cc(C)nc(/N=C(\N)N(Cc2ccccc2)Cc2ccccc2)n1`, the “hERG current change (%, negative = inhibition) at 1uM” value is -31.2%. The value for `O=C(NCCCN1CCOCC1)C1CCN(S(=O)(=O)c2ccccc2)CC1` was 13.1%; that for `COC(=O)CC(NC(=O)Nc1ccccc1F)c1ccc2c(c1)OCO2` (stereo not shown) was 16%; that for `Brc1ccc(-c2ccc(/C=N/Nc3nc4ccccc4[nH]3)o2)cc1` was 9.46%. On to `CCN1CCN(C(=O)c2ccc3c(Cl)c4c(nc3c2)CCCC4)CC1`, for which the “hERG current change (%, negative = inhibition) at 1uM” value came out at 11.2%. The value for `COc1ccc(-c2cn[nH]c2-c2ccc(OC)cc2)cc1` was 15.2%; that for `Cc1ccc2cccc(OCCOCCOc3ccccc3Br)c2n1` was 8.42%; that for `O=C(CN1CCN(S(=O)(=O)c2cccc(Cl)c2)CC1)NCC1(N2CCOCC2)CCCCC1` was 5.88%. Regarding `CC(C)CCC(C)NC(=O)c1ccc2nccnc2c1` (stereo not shown), the “hERG current change (%, negative = inhibition) at 1uM” value is reported as 10.6%. Regarding `Cc1ccccc1NC(=O)C1CCCN(S(=O)(=O)c2cnc[nH]2)C1` (stereo not shown), the “hERG current change (%, negative = inhibition) at 1uM” value stood at 2.01%. The figure for `O=C(O)c1ccc(/C=N\Nc2ccc(S(=O)(=O)N3CCOCC3)cc2[N+](=O)[O-])cc1` is 4.96%.

In the case of `Cc1n[nH]c(=S)n1/N=C/c1ccc(-c2ccc(Cl)cc2)o1`, the “hERG current change (%, negative = inhibition) at 1uM” value stood at 13.2%.

`Cc1cc(NCCCN)nc(-c2ccccc2O)n1`: the “hERG current change (%, negative = inhibition) at 1uM” value is 11.4%.

With `CC1(C)CC(=O)C(C=NCCN2CCN(CC(=O)Nc3ccccc3)CC2)=C(O)C1`, the “hERG current change (%, negative = inhibition) at 1uM” value was found to be 2.05%. The value for `COC(=O)/C(=C\c1cc(OC)c(OC)c(OC)c1)c1nc2ccccc2[nH]1.Cl` was 8.47%; that for `CCOc1cc(N2CCOCC2)c(OCC)cc1NC(=O)COC(=O)c1cc(C)oc1C` was 4.66%. As to `Cc1ccc(-c2cc(C(=O)N/N=C/c3c(C)nn(C)c3C)c3ccccc3n2)cc1C`, the “hERG current change (%, negative = inhibition) at 1uM” value came to 15.8%. The value for `CCCC(C)C(=O)Nc1nnc(CCc2ccccc2)s1` (stereo not shown) was 6.11%. The value for `COc1cc(NC(=O)CN2CCN(S(=O)(=O)c3ccc(C(C)C)cc3)CC2)cc(OC)c1` was -12.1%; that for `COc1ccc(C2N=C(c3ccccc3)C(C)(C)N2O)cc1` (stereo not shown) was 14.6%. The value for `O=C1CN(C(=O)COc2ccc([N+](=O)[O-])cc2Cl)c2ccccc2N1` was -8.16%; that for `CCOc1ccccc1N(CC(=O)NC1CCCC1)C(=O)CNC(=O)c1cccs1` was 1.7%; that for `Cc1onc(-c2c(Cl)cccc2Cl)c1NC(=O)NN(C)C` was 11.9%.

On to `Cc1cc2oc(=O)cc(CN3CCCCC3)c2cc1C`, for which the “hERG current change (%, negative = inhibition) at 1uM” value is 14%. The value for `c1ccc(-c2ccc(-c3ccccn3)s2)nc1` was 2.22%; that for `CC(=O)OCC(=O)[C@@]12OC(C)(C)O[C@@H]1CC1C3C[C@H](F)C4=CC(=O)C=CC4(C)[C@@]3(F)C(O)CC12C` (stereo partly shown) was 15.4%.

As to `Cl.OC(CNCc1ccc(-c2ccccc2)cc1)c1ccccc1` (stereo not shown), the “hERG current change (%, negative = inhibition) at 1uM” value is on record as 5.21%. The value for `COc1ccc(CC2(CO)COc3ccccc3C2=O)cc1` (stereo not shown) was 0.144%; that for `C#CCSc1nnc(-c2ccc(OC)cc2)o1` was -12.1%.

`COc1ccc(OC)c(-c2nc(CN3CCCCC3c3cccnc3)c(C)o2)c1` (stereo not shown): the “hERG current change (%, negative = inhibition) at 1uM” value came to 8.01%. The figure for `CCCN(Cc1ccccc1)C(=S)Nc1ccc(OCC)cc1` is 6.03%. The value for `Cc1ccccc1NC(=O)CCN1CCN(CCO)CC1` was 18.4%; that for `Cc1ccc(C(=O)N2CCC(C(=O)NC3CCCCCC3)CC2)cc1` was 13.9%; that for `COc1ccc(S(=O)(=O)N(CC(=O)NCc2cccnc2)c2ccc(F)cc2)cc1OC` was 9.21%. The value for `CCN1CCN(S(=O)(=O)c2ccc(Cl)c(C(=O)N(C)Cc3ccc(F)cc3)c2)CC1` was 6.21%; that for `CCCOC(=O)c1ccc(NC(=O)C2C3CCC(C3)C2C(=O)O)cc1` (stereo not shown) was 17.5%. For the compound `CCOc1cc(N2CCOCC2)c(OCC)cc1NC(=O)Cc1cccc(OC)c1`, the “hERG current change (%, negative = inhibition) at 1uM” value turned out to be 9.13%.

With `CN1CC2(C(=O)c3ccccc3)CN(C)CC(C(=O)c3ccccc3)(C1)C2`, the “hERG current change (%, negative = inhibition) at 1uM” value is listed as -7.52%. The value for `Cc1cc(OC(=O)N(C)C)nc(-c2ccc(C)c(Cl)c2)n1` was 5.38%; that for `CCCCNC(=O)CSc1nc2ccccc2n1S(=O)(=O)c1ccc(Br)cc1` was 7.05%. The figure for `O=c1c2ccccc2c2ccccc2c(=O)n1Cc1cccnc1` is 12.9%; for `CN(CC(=O)Nc1cccc(F)c1)C(=O)c1ccccc1CCc1ccccc1` it is 12.5%.
